From the supplement of paper PMC12217912
Some of the results follow. Sequences were assembled here from the parent chain. Inactive controls read about 0.05.

B1: TEV protease; numbered along this chain (parent)
chain: MGESLFKGPRDYNPISSSICHLTNESDGHTTSLYGIGFGPFIITNKHLFRRNNGTLVVQSLHGVFKVKDTTTLQQHLVDGRDMIIIRMPKDFPPFPQKLKFREPQREERICLVTTNFQTKSMSSMVSDTSCTFPSGDGIFWKHWIQTKDGQCGSPLVSTRDGFIVGIHSASNFTNTNNYFTSVPKNFMELLTNQEAQQWVSGWRLNADSVLWGGHKVFMVKPEEPFQPVKEATQL

Variants of: B1
Experiment: raw area under fraction-flipped curve 0-4 h after induction (AUC4h, not background-subtracted), DNA-recorder readout of cleavage of the substrate (dimensionless); higher = more cleavage of the substrate by the protease variant
Conditions: temperature: 34 °C; time window: 0-4 h after rhamnose induction
Method: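 In vivo DNA recorder in E. coli TOP10(DE3) ΔrhaA at 34 °C. Each TEVp single-site mutant (parent TEVp 0) is paired with a single-site variant of the 7-mer TEVs (canonical ENLYFQ|S). The substrate sits between flexible linkers in a Bxb1-sfGFP-TEVs-SsrA fusion, so cleavage stabilises Bxb1 and speeds flipping of a recombination array, read by NGS. The value is the raw area under the fraction-flipped curve over 0-4 h after rhamnose induction (AUC4h), with ≥20 reads per time point. It is not background-subtracted; inactive controls average about 0.047.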
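Further: Bxb1 expression induced with 0.2% (w/v) L-rhamnose at OD600 near 0.5, cultures sampled hourly, flipped fraction per protease–substrate barcode pair counted by paired-end Illumina sequencing.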

Variant | area with substrate ENLYAQS | area with substrate ENLYDQS | area with substrate ENLYEQS | area with substrate ENLYGQS | area with substrate ENLYHQS | area with substrate ENLYIQS | area with substrate ENLYLQS | area with substrate ENLYMQS | area with substrate ENLYRQS | area with substrate ENLYSQS | area with substrate ENLYVQS | area with substrate ENLYWQS | area with substrate ENLYKQS | area with substrate ENLYNQS | area with substrate ENLYPQS | area with substrate ENLYQQS | area with substrate ENLYTQS | area with substrate ENLYYQS | area with substrate ENLYCQS
I139Q | 0.0757 | 0.0563 | 0.0676 | 0.0625 | 0.0449 | 0.0992 | 0.0652 | 0.0771 | 0.0372 | 0.0615 | 0.0821 | 0.0681 |  |  |  |  |  |  | 
I145C | 0.0746 | 0.0719 | 0.0748 | 0.071 | 0.0575 |  |  | 0.0993 | 0.0668 | 0.108 | 0.186 | 0.129 | 0.075 | 0.0773 | 0.0737 | 0.0618 | 0.105 | 0.0692 | 
K148M | 0.0705 | 0.0533 | 0.0747 | 0.0731 | 0.0919 | 0.139 |  |  | 0.055 |  | 0.1 |  | 0.0615 | 0.0961 | 0.0853 |  | 0.0964 | 0.0678 | 
D149S | 0.0795 | 0.0471 | 0.0697 | 0.0905 | 0.0806 | 0.099 |  | 0.0937 |  | 0.0876 |  |  | 0.0585 |  | 0.0759 | 0.0622 |  | 0.0708 | 
G150F | 0.0685 | 0.0725 | 0.0575 | 0.0602 | 0.0464 | 0.0703 |  | 0.0559 | 0.0717 | 0.0534 |  | 0.06 | 0.0621 | 0.0543 | 0.0601 | 0.0419 | 0.0681 | 0.0407 | 0.0494
G150L | 0.0616 | 0.0694 | 0.0583 | 0.0635 | 0.0572 | 0.0574 |  | 0.0632 | 0.0625 | 0.0671 | 0.0511 | 0.0556 | 0.0419 | 0.0557 | 0.0583 |  |  | 0.0582 | 0.0638
Q151H | 0.0761 | 0.0652 | 0.0642 |  |  | 0.054 |  | 0.0664 | 0.0685 | 0.0712 | 0.0972 | 0.0794 | 0.0645 | 0.0609 | 0.0872 | 0.0662 | 0.0699 |  | 
P155E | 0.0765 |  | 0.0759 | 0.0411 | 0.0536 |  |  |  | 0.0698 | 0.065 |  |  | 0.0494 | 0.0578 | 0.0635 | 0.0584 | 0.0586 |  | 0.048
P155F | 0.0665 | 0.0674 | 0.0558 | 0.0502 | 0.0668 | 0.0484 | 0.0572 | 0.0485 | 0.0557 | 0.0095 | 0.0548 | 0.049 | 0.051 | 0.0585 | 0.0542 | 0.0679 |  |  | 
P155M | 0.0724 |  | 0.0494 | 0.0567 | 0.0536 | 0.0901 |  | 0.066 | 0.047 |  | 0.0769 |  |  | 0.0473 | 0.0698 | 0.0587 |  |  | 0.0629
V157N | 0.0411 | 0.0507 | 0.0502 | 0.0591 | 0.0498 | 0.0558 |  | 0.0587 |  | 0.0493 |  | 0.0553 | 0.0493 | 0.0553 | 0.0507 | 0.0709 | 0.064 | 0.0574 | 0.0682
V157R | 0.0542 |  | 0.0473 | 0.0636 | 0.0648 |  |  | 0.0517 | 0.0573 | 0.0634 | 0.0875 | 0.0599 | 0.0574 | 0.0604 | 0.0534 | 0.0528 | 0.0436 |  | 
R160A | 0.0744 |  | 0.0678 | 0.0682 | 0.0726 |  |  | 0.0737 | 0.0714 | 0.0611 | 0.129 | 0.0742 | 0.0699 | 0.067 | 0.053 |  |  |  | 0.0814
G166S | 0.0519 | 0.0499 | 0.0636 | 0.0616 | 0.051 | 0.0416 |  | 0.0455 |  | 0.047 |  | 0.0413 | 0.0582 | 0.0497 | 0.0603 | 0.055 | 0.0448 | 0.0519 | 
I167F | 0.0688 | 0.0875 | 0.0554 | 0.0678 | 0.0663 | 0.097 |  | 0.0529 | 0.0639 | 0.0659 | 0.0957 | 0.0491 |  | 0.0624 | 0.0584 | 0.0479 | 0.0715 | 0.0514 | 0.0815
T176L | 0.0576 |  | 0.0654 | 0.0777 |  | 0.0737 |  | 0.0736 | 0.0823 | 0.0823 | 0.0866 | 0.0702 | 0.0578 | 0.064 |  | 0.0671 | 0.0689 |  | 
N178I | 0.059 | 0.0673 | 0.0723 |  |  |  |  |  |  | 0.0662 |  |  | 0.0522 |  | 0.0593 |  |  |  | 0.0707
F180I | 0.0596 | 0.0635 | 0.0669 | 0.0493 | 0.0501 | 0.0605 |  |  | 0.0614 |  | 0.0593 | 0.0331 | 0.0573 | 0.0523 | 0.081 | 0.0393 |  | 0.0601 | 
T181G | 0.0659 |  | 0.0524 | 0.0548 | 0.0588 |  | 0.0547 | 0.0573 |  | 0.0787 |  | 0.0699 | 0.0642 | 0.0599 |  | 0.0373 |  | 0.0501 | 0.0719
V183C | 0.0747 | 0.0543 | 0.0564 | 0.0548 |  | 0.135 | 0.09 | 0.0921 |  | 0.0602 | 0.0963 | 0.0618 | 0.0737 | 0.0737 | 0.0679 | 0.0697 |  | 0.0639 | 
V183I | 0.0678 | 0.0539 | 0.0675 | 0.0745 | 0.0589 |  | 0.0813 | 0.0835 |  | 0.0795 | 0.106 | 0.101 | 0.0405 | 0.064 |  |  |  | 0.0499 | 
M188L | 0.0881 | 0.0599 | 0.0733 | 0.0899 |  | 0.143 |  | 0.0543 |  | 0.0687 |  | 0.0796 | 0.0659 | 0.0675 |  | 0.0703 |  | 0.036 | 0.0906
M188T | 0.0613 |  |  | 0.0695 | 0.0714 |  |  | 0.102 | 0.0665 | 0.0656 | 0.139 | 0.097 | 0.0595 | 0.0784 | 0.0708 | 0.0663 |  | 0.0738 | 
E189V | 0.074 | 0.0531 | 0.0592 |  | 0.0661 | 0.124 | 0.0584 |  | 0.0582 | 0.074 | 0.0802 | 0.0727 | 0.0255 | 0.0745 | 0.0638 |  |  | 0.0559 | 0.0408
L191I | 0.062 | 0.0749 |  | 0.0676 |  |  | 0.0837 | 0.0752 | 0.0353 |  | 0.12 | 0.0505 |  |  | 0.057 |  | 0.07 | 0.0619 | 
